# From the supplement of paper PMC8728848
# This is one part of the list.
# B1: NanI (Corynebacterium diphtheriae), C6JSW7 (protein)
# chain: MTNTLESNPMTTTTGALTITFATTCDGPLAHIPHHLDLNIIHGRIQGTTAHRRIDAEDPDGLDDGLPHHLCLSVDTTGTHLFIDGYEAFSTTQTEWFDTSELTLNPHGDLTIIDHQILNHAPTPRQARNLAPAAEPLVWFAGSHLSTRDTQRISHLTHGSLRLLMKTRGTGQGGVAFQAHTINGDLTLEIIDGTLIFSVRCHDEDYVRITAPGRWDDGQIYDVVIVCGRGATDIYVDGQQLIHSPGAAFFNDLSGELSVHIGTAASGVRLFGEVQSGMIYPHVFNHHQVQRLATVEPIATQALFDCLLDGAQSYRIPSLITTDSGVIIAGADKRVSIANDAPNDIDFVLRRSVDGGRTWQPPRTILQLPDTACVTDSVLLQDHTTGRIFAFLDQFPAGIGQPNAAFGTGFDADGNRIGHFADGSTCTMPREVDQLEASFFSDPHTAPPGIVFQHPSCHLWMLTSDDDGLTWSTPRDLTPDVKEEWMRFCGTSPGNGIQLQRDTHAGRLLIPMYYTKGDQFFAAALYSDDHGDTWHRGESPDLEMYESTLVEASDGSVLLWARNQHPSGAVAHARSTDGGHSWSQVTFNPNVPEIFSQPNALRVTNPDGIIFANASQLLPFRGRGVLRMSTNDGASWQHNRVFNPRHYVYQCMTQLPDGSIGLLWEREMQGLFFSIIPMTWIMQGYAL
# Columns and labels:
# Experiment in all cases: glycan array binding signal (z-score within array); higher = stronger binding
# Conditions in all cases: glycan notation: IUPAC condensed, linker removed
# [1] = target: Gal3S(b1-3)[Fuc(a1-4)]GlcNAc
# Summary of the method: (§1)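 The binding signal is a Z-score computed within each array. Data were drawn from 3228 arrays in the Consortium for Functional Glycomics database, restricted to those with a known protein sequence. Scores were averaged over arrays of the same protein sequence at different concentrations or buffers, and over linkers, and negative values can be taken as non-binding.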
# Gal3S(b1-4)Glc = target: Gal3S(b1-4)Glc
# Summary of the method: as §1
# Gal3S(b1-4)Glc6S = target: Gal3S(b1-4)Glc6S
# Summary of the method: as §1
# Gal3S(b1-4)GlcNAc = target: Gal3S(b1-4)GlcNAc
# Summary of the method: as §1
# Gal3S(b1-4)GlcNAc6S = target: Gal3S(b1-4)GlcNAc6S
# Summary of the method: as §1
# [2] = target: Gal3S(b1-4)[Fuc(a1-3)]Glc
# Summary of the method: as §1
# [3] = target: Gal3S(b1-4)[Fuc(a1-3)]Glc6S
# Summary of the method: as §1
# Gal3S4S(b1-4)GlcNAc = target: Gal3S4S(b1-4)GlcNAc
# Summary of the method: as §1
# Gal3S6S(b1-4)GlcNAc = target: Gal3S6S(b1-4)GlcNAc
# Summary of the method: as §1
# Gal3S6S(b1-4)GlcNAc6S = target: Gal3S6S(b1-4)GlcNAc6S
# Summary of the method: as §1
# Gal4S(b1-4)GlcNAc = target: Gal4S(b1-4)GlcNAc
# Summary of the method: as §1
# Gal4S6S(b1-4)GlcNAc = target: Gal4S6S(b1-4)GlcNAc
# Summary of the method: as §1
# Gal6S(b1-3)GlcNAc = target: Gal6S(b1-3)GlcNAc
# Summary of the method: as §1
# Gal6S(b1-3)GlcNAc6S = target: Gal6S(b1-3)GlcNAc6S
# Summary of the method: as §1
# Gal6S(b1-4)Glc = target: Gal6S(b1-4)Glc
# Summary of the method: as §1
# Gal6S(b1-4)Glc6S = target: Gal6S(b1-4)Glc6S
# Summary of the method: as §1
# Gal6S(b1-4)GlcNAc = target: Gal6S(b1-4)GlcNAc
# Summary of the method: as §1
# Gal6S(b1-4)GlcNAc6S = target: Gal6S(b1-4)GlcNAc6S
# Summary of the method: as §1
# GalNAc(a1-3)Gal = target: GalNAc(a1-3)Gal
# Summary of the method: as §1
# GalNAc(a1-3)GalNAc = target: GalNAc(a1-3)GalNAc
# Summary of the method: as §1
# [4] = target: GalNAc(a1-3)GalNAc(b1-3)Gal(a1-4)Gal(b1-4)Glc
# Summary of the method: as §1
# [5] = target: GalNAc(a1-3)GalNAc(b1-3)Gal(a1-4)Gal(b1-4)GlcNAc
# Summary of the method: as §1
# GalNAc(b1-3)Gal = target: GalNAc(b1-3)Gal
# Summary of the method: as §1
# [6] = target: GalNAc(b1-3)Gal(a1-4)Gal(b1-4)GlcNAc
# Summary of the method: as §1
# [7] = target: GalNAc(b1-3)Gal(a1-4)Gal(b1-4)GlcNAc(b1-3)Gal(b1-4)Glc
# Summary of the method: as §1
# [8] = target: GalNAc(b1-3)Gal(a1-6)Gal(b1-4)Glc
# Summary of the method: as §1
# GalNAc(b1-3)GalNAc = target: GalNAc(b1-3)GalNAc
# Summary of the method: as §1
# GalNAc(b1-4)Gal(b1-4)Glc = target: GalNAc(b1-4)Gal(b1-4)Glc
# Summary of the method: as §1
# GalNAc(b1-4)GlcNAc = target: GalNAc(b1-4)GlcNAc
# Summary of the method: as §1
# [9] = target: GalNAc(b1-4)GlcNAc(b1-2)Man(a1-3)[GalNAc(b1-4)GlcNAc(b1-2)Man(a1-6)]Man(b1-4)GlcNAc(b1-4)GlcNAc
# Summary of the method: as §1
# GalNAc(b1-6)GalNAc = target: GalNAc(b1-6)GalNAc
# Summary of the method: as §1
# Glc(a1-4)Glc = target: Glc(a1-4)Glc
# Summary of the method: as §1
# [10] = target: Glc(a1-4)Glc(a1-4)Glc(a1-4)Glc
# Summary of the method: as §1
# Glc(a1-6)Glc(a1-6)Glc = target: Glc(a1-6)Glc(a1-6)Glc
# Summary of the method: as §1
# [11] = target: Glc(a1-6)Glc(a1-6)Glc(a1-6)Glc
# Summary of the method: as §1
# Glc(b1-4)Glc = target: Glc(b1-4)Glc
# Summary of the method: as §1
# Glc(b1-6)Glc = target: Glc(b1-6)Glc
# Summary of the method: as §1
# GlcA(b1-3)Gal = target: GlcA(b1-3)Gal
# Summary of the method: as §1
# GlcA(b1-3)GlcNAc = target: GlcA(b1-3)GlcNAc
# Summary of the method: as §1
# GlcA(b1-6)Gal = target: GlcA(b1-6)Gal
# Summary of the method: as §1
# [12] = target: GlcNAc(a1-3)Gal(b1-4)GlcNAc
# Summary of the method: as §1
# [13] = target: GlcNAc(a1-4)Gal(b1-3)GlcNAc
# Summary of the method: as §1
# [14] = target: GlcNAc(a1-4)Gal(b1-4)GalNAc
# Summary of the method: as §1
# [15] = target: GlcNAc(a1-4)Gal(b1-4)GlcNAc
# Summary of the method: as §1
# [16] = target: GlcNAc(a1-4)Gal(b1-4)GlcNAc(b1-3)Gal(b1-4)Glc
# Summary of the method: as §1
# [17] = target: GlcNAc(a1-4)Gal(b1-4)GlcNAc(b1-3)Gal(b1-4)GlcNAc
# Summary of the method: as §1
# [18] = target: GlcNAc(a1-4)Gal(b1-4)GlcNAc(b1-3)Gal(b1-4)GlcNAc(b1-3)Gal(b1-4)GlcNAc
# Summary of the method: as §1
# [19] = target: GlcNAc(a1-4)Gal(b1-4)GlcNAc(b1-3)Gal(b1-4)[Fuc(a1-3)]GlcNAc(b1-3)Gal(b1-4)[Fuc(a1-3)]GlcNAc
# Summary of the method: as §1
# [20] = target: GlcNAc(a1-6)Gal(b1-4)GlcNAc
# Summary of the method: as §1
# [21] = target: GlcNAc(b1-2)Gal(b1-3)GalNAc
# Summary of the method: as §1
# [22] = target: GlcNAc(b1-2)Man(a1-3)[GlcNAc(b1-2)Man(a1-6)]Man(b1-4)GlcNAc(b1-4)GlcNAc
# Summary of the method: as §1
# [23] = target: GlcNAc(b1-2)Man(a1-3)[GlcNAc(b1-2)Man(a1-6)]Man(b1-4)GlcNAc(b1-4)[Fuc(a1-6)]GlcNAc
# Summary of the method: as §1
# [24] = target: GlcNAc(b1-2)Man(a1-3)[GlcNAc(b1-4)][GlcNAc(b1-2)Man(a1-6)]Man(b1-4)GlcNAc(b1-4)GlcNAc
# Summary of the method: as §1
# [25] = target: GlcNAc(b1-2)[GlcNAc(b1-4)]Man(a1-3)[GlcNAc(b1-2)Man(a1-6)]Man(b1-4)GlcNAc(b1-4)GlcNAc
# Summary of the method: as §1
# [26] = target: GlcNAc(b1-2)[GlcNAc(b1-4)]Man(a1-3)[GlcNAc(b1-4)][GlcNAc(b1-2)Man(a1-6)]Man(b1-4)GlcNAc(b1-4)GlcNAc
# Summary of the method: as §1
# [27] = target: GlcNAc(b1-2)[GlcNAc(b1-4)]Man(a1-3)[GlcNAc(b1-4)][GlcNAc(b1-2)[GlcNAc(b1-6)]Man(a1-6)]Man(b1-4)GlcNAc(b1-4)GlcNAc
# Summary of the method: as §1
# [28] = target: GlcNAc(b1-2)[GlcNAc(b1-6)]Man(a1-6)[GlcNAc(b1-2)Man(a1-3)]Man(b1-4)GlcNAc(b1-4)GlcNAc
# Summary of the method: as §1
# [29] = target: GlcNAc(b1-2)[GlcNAc(b1-6)]Man(a1-6)[GlcNAc(b1-2)Man(a1-3)][GlcNAc(b1-4)]Man(b1-4)GlcNAc(b1-4)GlcNAc
# Summary of the method: as §1
# GlcNAc(b1-3)Gal = target: GlcNAc(b1-3)Gal
# Summary of the method: as §1
# [30] = target: GlcNAc(b1-3)Gal(b1-3)GalNAc
# Summary of the method: as §1
binder,measurement,setting,value
B1,glycan array binding signal (z-score),[1],-0.788
same,glycan array binding signal (z-score),Gal3S(b1-4)Glc,0.343
same,glycan array binding signal (z-score),Gal3S(b1-4)Glc6S,-0.332
same,glycan array binding signal (z-score),Gal3S(b1-4)GlcNAc,0.066
same,glycan array binding signal (z-score),Gal3S(b1-4)GlcNAc6S,0.609
same,glycan array binding signal (z-score),[2],1.09
same,glycan array binding signal (z-score),[3],-0.197
same,glycan array binding signal (z-score),Gal3S4S(b1-4)GlcNAc,-0.68
same,glycan array binding signal (z-score),Gal3S6S(b1-4)GlcNAc,0.007
same,glycan array binding signal (z-score),Gal3S6S(b1-4)GlcNAc6S,-0.141
same,glycan array binding signal (z-score),Gal4S(b1-4)GlcNAc,-0.503
same,glycan array binding signal (z-score),Gal4S6S(b1-4)GlcNAc,-0.979
same,glycan array binding signal (z-score),Gal6S(b1-3)GlcNAc,0.53
same,glycan array binding signal (z-score),Gal6S(b1-3)GlcNAc6S,-0.717
same,glycan array binding signal (z-score),Gal6S(b1-4)Glc,-0.205
same,glycan array binding signal (z-score),Gal6S(b1-4)Glc6S,-0.493
same,glycan array binding signal (z-score),Gal6S(b1-4)GlcNAc,-0.815
same,glycan array binding signal (z-score),Gal6S(b1-4)GlcNAc6S,0.977
same,glycan array binding signal (z-score),GalNAc(a1-3)Gal,-0.952
same,glycan array binding signal (z-score),GalNAc(a1-3)GalNAc,-0.302
same,glycan array binding signal (z-score),[4],-0.577
same,glycan array binding signal (z-score),[5],-0.624
same,glycan array binding signal (z-score),GalNAc(b1-3)Gal,0.025
same,glycan array binding signal (z-score),[6],-0.825
same,glycan array binding signal (z-score),[7],-0.854
same,glycan array binding signal (z-score),[8],0.28
same,glycan array binding signal (z-score),GalNAc(b1-3)GalNAc,-0.471
same,glycan array binding signal (z-score),GalNAc(b1-4)Gal(b1-4)Glc,1.01
same,glycan array binding signal (z-score),GalNAc(b1-4)GlcNAc,-0.67
same,glycan array binding signal (z-score),[9],0.628
same,glycan array binding signal (z-score),GalNAc(b1-6)GalNAc,-0.739
same,glycan array binding signal (z-score),Glc(a1-4)Glc,-0.173
same,glycan array binding signal (z-score),[10],-0.547
same,glycan array binding signal (z-score),Glc(a1-6)Glc(a1-6)Glc,-0.462
same,glycan array binding signal (z-score),[11],-0.017
same,glycan array binding signal (z-score),Glc(b1-4)Glc,-0.612
same,glycan array binding signal (z-score),Glc(b1-6)Glc,-0.717
same,glycan array binding signal (z-score),GlcA(b1-3)Gal,0.643
same,glycan array binding signal (z-score),GlcA(b1-3)GlcNAc,-0.388
same,glycan array binding signal (z-score),GlcA(b1-6)Gal,0.31
same,glycan array binding signal (z-score),[12],-0.55
same,glycan array binding signal (z-score),[13],-0.205
same,glycan array binding signal (z-score),[14],1.09
same,glycan array binding signal (z-score),[15],-0.096
same,glycan array binding signal (z-score),[16],-0.183
same,glycan array binding signal (z-score),[17],4.05
same,glycan array binding signal (z-score),[18],-0.152
same,glycan array binding signal (z-score),[19],9.15
same,glycan array binding signal (z-score),[20],-0.234
same,glycan array binding signal (z-score),[21],0.39
same,glycan array binding signal (z-score),[22],-0.109
same,glycan array binding signal (z-score),[23],1.02
same,glycan array binding signal (z-score),[24],-0.236
same,glycan array binding signal (z-score),[25],-0.014
same,glycan array binding signal (z-score),[26],-0.8
same,glycan array binding signal (z-score),[27],-0.983
same,glycan array binding signal (z-score),[28],-0.496
same,glycan array binding signal (z-score),[29],-0.608
same,glycan array binding signal (z-score),GlcNAc(b1-3)Gal,-0.248
same,glycan array binding signal (z-score),[30],2.79
